Paper PMC3787733 (Biochimica et Biophysica Acta, 2013)

Target: GST-tagged vimentin
Test: pull-down

B1: His-tagged Rab7a wt (natural protein)
chain: not shown
binding result: binds
